Drawing on article PMC6711944, this text covers binding for one molecule.

Chains of the proteins cited; added tags and fusions are not shown. Residues count along the entry.
UniProt P05161, residues 1-157: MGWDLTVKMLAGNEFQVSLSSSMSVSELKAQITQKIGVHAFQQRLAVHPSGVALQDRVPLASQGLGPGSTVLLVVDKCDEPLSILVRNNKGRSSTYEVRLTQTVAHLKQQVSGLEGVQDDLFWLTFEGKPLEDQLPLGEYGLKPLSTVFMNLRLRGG
UniProt Q64339, residues 1-155: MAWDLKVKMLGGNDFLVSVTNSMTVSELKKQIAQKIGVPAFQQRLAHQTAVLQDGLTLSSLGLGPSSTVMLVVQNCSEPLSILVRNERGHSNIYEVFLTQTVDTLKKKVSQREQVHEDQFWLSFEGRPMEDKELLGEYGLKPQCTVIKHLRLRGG
UniProt O02741: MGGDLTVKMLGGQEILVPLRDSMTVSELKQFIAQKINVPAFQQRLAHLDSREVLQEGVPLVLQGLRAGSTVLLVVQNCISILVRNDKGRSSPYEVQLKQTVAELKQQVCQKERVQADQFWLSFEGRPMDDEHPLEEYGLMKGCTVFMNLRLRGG

Holding throughout (assay): co-IP
Assay [1] addresses 3xFlag-ISG15, human (wild type) (human) (UniProt P05161).
Assay [2] concerns the target 3xFlag-ISG15, murine (wild type) (murine) (UniProt Q64339).
The target in assay [3] is 3xFlag-ISG15, bovine (wild type) (bovine) (UniProt O02741).

No constants are given. Whether binding was seen depends on the method and setting. Binding seen in cells or lysates may run through a third protein. Some entries that bind do so weakly or less than the wild type. Where a sequence is shown, tags or fusion partners need not be part of it.

B1: NS1B-HA (full-length influenza B virus NS1 protein) (protein, UniProt P03502 1-281)
chain: MADNMTTTQIEVGPGATNATINFEAGILECYERFSWQRALDYPGQDRLHRLKRKLESRIKTHNKSEPENKRMSLEERKAIGVKMMKVLLFMDPSAGIEGFEPYCVKNPSTSKCPNYDWTDYPPTPGKYLDDIEEEPENVDHPIEVVLRDMNNKDARQKIKDEVNTQKEGKFRLTIKRDIRNVLSLRVLVNGTFLKHPNGDKSLSTLHRLNAYDQNGGLVAKLVATDDRTVEDEKDGHRILNSLFERFDEGHSKPIRAAETAVGVLSQFGQEHRLSPEEGDN
For B1, the binding result in assay [1] is “binds”; in assay [2] it was “no binding”; in assay [3], “no binding”.
